This is an account of results in the supplement of paper PMC12217912.

The list shows a part of the results. Sequences were assembled here from the parent chain. Inactive controls read about 0.05.

B1: TEV protease; numbered along this chain (parent)
chain: MGESLFKGPRDYNPISSSICHLTNESDGHTTSLYGIGFGPFIITNKHLFRRNNGTLVVQSLHGVFKVKDTTTLQQHLVDGRDMIIIRMPKDFPPFPQKLKFREPQREERICLVTTNFQTKSMSSMVSDTSCTFPSGDGIFWKHWIQTKDGQCGSPLVSTRDGFIVGIHSASNFTNTNNYFTSVPKNFMELLTNQEAQQWVSGWRLNADSVLWGGHKVFMVKPEEPFQPVKEATQL

This assay covers variants of B1. The assay can be described thus: raw area under fraction-flipped curve 0-4 h after induction (AUC4h, not background-subtracted), DNA-recorder readout of cleavage of the substrate (dimensionless); higher = more cleavage of the substrate by the protease variant. To be noted: temperature: 34 °C; time window: 0-4 h after rhamnose induction. Here is the method:
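In vivo DNA recorder in E. coli TOP10(DE3) ΔrhaA at 34 °C. Each TEVp single-site mutant (parent TEVp 0) is paired with a single-site variant of the 7-mer TEVs (canonical ENLYFQ|S). The substrate sits between flexible linkers in a Bxb1-sfGFP-TEVs-SsrA fusion, so cleavage stabilises Bxb1 and speeds flipping of a recombination array, read by NGS. The value is the raw area under the fraction-flipped curve over 0-4 h after rhamnose induction (AUC4h), with ≥20 reads per time point. It is not background-subtracted; inactive controls average about 0.047.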
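Also: Bxb1 expression induced with 0.2% (w/v) L-rhamnose at OD600 near 0.5, cultures sampled hourly, flipped fraction per protease–substrate barcode pair counted by paired-end Illumina sequencing.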

Consider MGESLFKGPRDYNPISSSICHLTNESDGHTTSLYGIGFGPFIITNKHLFRRNNGTLVVQSLHGVFKVKDTTTLQQLLVDGRDMIIIRMPKDFPPFPQKLKFREPQREERICLVTTNFQTKSMSSMVSDTSCTFPSGDGIFWKHWIQTKDGQCGSPLVSTRDGFIVGIHSASNFTNTNNYFTSVPKNFMELLTNQEAQQWVSGWRLNADSVLWGGHKVFMVKPEEPFQPVKEATQL [H76L], for which the “area with substrate ENLAFQS” value worked out at 0.0666, the “area with substrate ENLDFQS” value was found to be 0.0617, the “area with substrate ENLEFQS” value worked out at 0.069 and the “area with substrate ENLFFQS” value is 0.081. The “area with substrate ENLGFQS” value is 0.061, the “area with substrate ENLKFQS” value worked out at 0.0741, the “area with substrate ENLNFQS” value worked out at 0.039 and the “area with substrate ENLPFQS” value came out at 0.0585. Besides, the “area with substrate ENLQFQS” value stood at 0.0833, the “area with substrate ENLSFQS” value was found to be 0.0656, the “area with substrate ENLTFQS” value came to 0.0654 and the “area with substrate ENLVFQS” value was 0.0762.
With MGESLFKGPRDYNPISSSICHLTNESDGHTTSLYGIGFGPFIITNKHLFRRNNGTLVVQSLHGVFKVKDTTTLQQWLVDGRDMIIIRMPKDFPPFPQKLKFREPQREERICLVTTNFQTKSMSSMVSDTSCTFPSGDGIFWKHWIQTKDGQCGSPLVSTRDGFIVGIHSASNFTNTNNYFTSVPKNFMELLTNQEAQQWVSGWRLNADSVLWGGHKVFMVKPEEPFQPVKEATQL [H76W], the “area with substrate ENLAFQS” value is 0.0619, the “area with substrate ENLCFQS” value amounted to 0.0644, the “area with substrate ENLDFQS” value worked out at 0.0489 and the “area with substrate ENLEFQS” value worked out at 0.0618. For the same variant, the “area with substrate ENLGFQS” value is 0.0756, the “area with substrate ENLIFQS” value is 0.0997, the “area with substrate ENLLFQS” value was determined as 0.0807 and the “area with substrate ENLMFQS” value stood at 0.0858. In addition, the “area with substrate ENLNFQS” value turned out to be 0.067, the “area with substrate ENLPFQS” value was determined as 0.0629 and the “area with substrate ENLRFQS” value is 0.0512.
MGESLFKGPRDYNPISSSICHLTNESDGHTTSLYGIGFGPFIITNKHLFRRNNGTLVVQSLHGVFKVKDTTTLQQHLVDGRDMIIIRMYKDFPPFPQKLKFREPQREERICLVTTNFQTKSMSSMVSDTSCTFPSGDGIFWKHWIQTKDGQCGSPLVSTRDGFIVGIHSASNFTNTNNYFTSVPKNFMELLTNQEAQQWVSGWRLNADSVLWGGHKVFMVKPEEPFQPVKEATQL [P89Y]: the “area with substrate ENLAFQS” value was 0.0472, the “area with substrate ENLDFQS” value was found to be 0.045, the “area with substrate ENLEFQS” value came to 0.0526 and the “area with substrate ENLFFQS” value amounted to 0.0536. Moreover, the “area with substrate ENLHFQS” value amounted to 0.0525, the “area with substrate ENLKFQS” value came to 0.0575, the “area with substrate ENLNFQS” value is 0.0575 and the “area with substrate ENLPFQS” value was determined as 0.0417. For the same variant, the “area with substrate ENLSFQS” value is 0.0617 and the “area with substrate ENLVFQS” value worked out at 0.0923.
MGESLFKGPRDYNPISSSICHLTNESDGHTTSLYGIGFGPFIITNKHLFRRNNGTLVVQSLHGVFKVKDTTTLQQHLVSGRDMIIIRMPKDFPPFPQKLKFREPQREERICLVTTNFQTKSMSSMVSDTSCTFPSGDGIFWKHWIQTKDGQCGSPLVSTRDGFIVGIHSASNFTNTNNYFTSVPKNFMELLTNQEAQQWVSGWRLNADSVLWGGHKVFMVKPEEPFQPVKEATQL [D79S]: the “area with substrate ENLAFQS” value amounted to 0.0404, the “area with substrate ENLDFQS” value worked out at 0.0679, the “area with substrate ENLEFQS” value worked out at 0.0537 and the “area with substrate ENLFFQS” value was 0.0808. The “area with substrate ENLGFQS” value is 0.0573, the “area with substrate ENLHFQS” value is 0.0635, the “area with substrate ENLIFQS” value came to 0.0754 and the “area with substrate ENLKFQS” value was determined as 0.078. The “area with substrate ENLMFQS” value turned out to be 0.0777, the “area with substrate ENLNFQS” value worked out at 0.0687, the “area with substrate ENLPFQS” value was 0.0653 and the “area with substrate ENLQFQS” value was found to be 0.0744. Further, the “area with substrate ENLSFQS” value was found to be 0.0655, the “area with substrate ENLVFQS” value stood at 0.0906 and the “area with substrate ENLWFQS” value worked out at 0.0601.
With MGESLFKGPRDYNPISSSICHLTNESDGHTTSLYGIGFGPFIITNKHLFRRNNGTLVVQSLHGVFKVKDTTTLQQHLVWGRDMIIIRMPKDFPPFPQKLKFREPQREERICLVTTNFQTKSMSSMVSDTSCTFPSGDGIFWKHWIQTKDGQCGSPLVSTRDGFIVGIHSASNFTNTNNYFTSVPKNFMELLTNQEAQQWVSGWRLNADSVLWGGHKVFMVKPEEPFQPVKEATQL [D79W], the “area with substrate ENLAFQS” value stood at 0.0543, the “area with substrate ENLCFQS” value is 0.0506, the “area with substrate ENLDFQS” value was 0.0623 and the “area with substrate ENLFFQS” value came out at 0.0504. The “area with substrate ENLHFQS” value was determined as 0.0745, the “area with substrate ENLIFQS” value turned out to be 0.0802, the “area with substrate ENLKFQS” value turned out to be 0.0649 and the “area with substrate ENLLFQS” value is 0.0549. For the same variant, the “area with substrate ENLNFQS” value was 0.0774, the “area with substrate ENLPFQS” value was 0.0375, the “area with substrate ENLQFQS” value was 0.085 and the “area with substrate ENLRFQS” value came out at 0.0742. Besides, the “area with substrate ENLTFQS” value amounted to 0.0991, the “area with substrate ENLVFQS” value was found to be 0.0773 and the “area with substrate ENLWFQS” value stood at 0.0584.
With MGESLFKGPRDYNPISSSICHLTNESDGHTTSLYGIGFGPFIITNKHLFRRNNGTLVVQSLHGVFKVKDTTTLQQHLVMGRDMIIIRMPKDFPPFPQKLKFREPQREERICLVTTNFQTKSMSSMVSDTSCTFPSGDGIFWKHWIQTKDGQCGSPLVSTRDGFIVGIHSASNFTNTNNYFTSVPKNFMELLTNQEAQQWVSGWRLNADSVLWGGHKVFMVKPEEPFQPVKEATQL [D79M], the “area with substrate ENLAFQS” value came out at 0.065, the “area with substrate ENLDFQS” value amounted to 0.0687, the “area with substrate ENLFFQS” value came to 0.0761 and the “area with substrate ENLHFQS” value was determined as 0.0711. Also, the “area with substrate ENLIFQS” value stood at 0.0557, the “area with substrate ENLLFQS” value was found to be 0.067, the “area with substrate ENLMFQS” value worked out at 0.0831 and the “area with substrate ENLNFQS” value was determined as 0.0617. Moreover, the “area with substrate ENLPFQS” value came out at 0.0457, the “area with substrate ENLQFQS” value was determined as 0.0724, the “area with substrate ENLRFQS” value came out at 0.0587 and the “area with substrate ENLSFQS” value amounted to 0.0609. The “area with substrate ENLTFQS” value amounted to 0.0605.
In the case of MGESLFKGPRDYNPISSSICHLTNESDGHTTSLYGIGFGPFIITNKHLFRRNNGTLVVQSLHGVFKVKDTTTLQQHLVTGRDMIIIRMPKDFPPFPQKLKFREPQREERICLVTTNFQTKSMSSMVSDTSCTFPSGDGIFWKHWIQTKDGQCGSPLVSTRDGFIVGIHSASNFTNTNNYFTSVPKNFMELLTNQEAQQWVSGWRLNADSVLWGGHKVFMVKPEEPFQPVKEATQL [D79T], the “area with substrate ENLAFQS” value worked out at 0.0559, the “area with substrate ENLCFQS” value is 0.0736, the “area with substrate ENLDFQS” value came to 0.0742 and the “area with substrate ENLEFQS” value is 0.0365. The “area with substrate ENLFFQS” value is 0.0839, the “area with substrate ENLIFQS” value was 0.0764, the “area with substrate ENLNFQS” value was determined as 0.0469 and the “area with substrate ENLPFQS” value came to 0.0566. For the same variant, the “area with substrate ENLQFQS” value amounted to 0.0551, the “area with substrate ENLSFQS” value was 0.0639 and the “area with substrate ENLWFQS” value turned out to be 0.0821.
Regarding MGESLFKGPRDYNPISSSICHLTNESDGHTTSLYGIGFGPFIITNKHLFRRNNGTLVVQSLHGVFKVKDTVTLQQHLVDGRDMIIIRMPKDFPPFPQKLKFREPQREERICLVTTNFQTKSMSSMVSDTSCTFPSGDGIFWKHWIQTKDGQCGSPLVSTRDGFIVGIHSASNFTNTNNYFTSVPKNFMELLTNQEAQQWVSGWRLNADSVLWGGHKVFMVKPEEPFQPVKEATQL [T71V], the “area with substrate ENLAFQS” value was determined as 0.0684, the “area with substrate ENLDFQS” value stood at 0.0613, the “area with substrate ENLEFQS” value is 0.0754 and the “area with substrate ENLFFQS” value turned out to be 0.108. Also, the “area with substrate ENLHFQS” value is 0.0757, the “area with substrate ENLKFQS” value is 0.0706, the “area with substrate ENLLFQS” value is 0.0686 and the “area with substrate ENLNFQS” value was 0.0467. Moreover, the “area with substrate ENLPFQS” value was determined as 0.0551, the “area with substrate ENLRFQS” value was 0.084, the “area with substrate ENLSFQS” value was 0.0609 and the “area with substrate ENLTFQS” value stood at 0.0617. Further, the “area with substrate ENLWFQS” value was 0.0687.
As to MGESLFKGPRDYNPISSSICHLTNESDGHTTSLYGIGFGPFIITNKHLFRRNNGTLVVQSLHGVFKVKDTTTLQQHLVDGRDMIIIRMPKDFPPHPQKLKFREPQREERICLVTTNFQTKSMSSMVSDTSCTFPSGDGIFWKHWIQTKDGQCGSPLVSTRDGFIVGIHSASNFTNTNNYFTSVPKNFMELLTNQEAQQWVSGWRLNADSVLWGGHKVFMVKPEEPFQPVKEATQL [F95H], the “area with substrate ENLAFQS” value is 0.0715, the “area with substrate ENLCFQS” value was 0.0967, the “area with substrate ENLDFQS” value was determined as 0.0565 and the “area with substrate ENLEFQS” value worked out at 0.064. Moreover, the “area with substrate ENLHFQS” value was 0.064, the “area with substrate ENLIFQS” value came to 0.0643, the “area with substrate ENLKFQS” value worked out at 0.0621 and the “area with substrate ENLLFQS” value is 0.0678. The “area with substrate ENLMFQS” value was found to be 0.0643, the “area with substrate ENLNFQS” value was 0.0591, the “area with substrate ENLSFQS” value is 0.0501 and the “area with substrate ENLVFQS” value turned out to be 0.0581.
